PubChem BioAssay AID1454 (National Center for Advancing Translational Sciences (NCATS), 2008)
Hit rate of the full screen: of about 130,000 compounds, about 550 (0.42%) were called active. The shares of active, inactive and inconclusive entries below differ from those in the screen. Calls follow the shape of the dose curve; as a rule, active = well fitted inhibition curve with a large enough effect; inconclusive = small, poorly fitted or top-dose-only effect, or effect the other way; inactive = flat fitted curve, though single readings scatter. No potency is given beside an inconclusive call; the fits are too rough.

Test: qHTS Assay for Inhibitors of the ERK Signaling Pathway using a Homogeneous Screening Assay; Stimulation with EGF; also: nearly all actives have a fitted effect of over 55% in size
Conditions: HEK293-V1b, EGF-stimulated phospho-ERK AlphaScreen
Method in brief: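 Stably V1b-transfected HEK293 cells; 30 min compound, then EGF 25 nM final for 5 min at 37C; 10 min lysis; phospho-ERK by AlphaScreen after 5 hr beads at room temperature.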
Potency is read from the fitted curve at half-maximal effect; tags tell the direction and shape of the fitted curve.

Structure (SMILES) | Potency
COc1ccc(OCc2nc3ccc(S(=O)(=O)Nc4ccccc4Cl)cc3[nH]2)cc1 | inconclusive [inhibitor, single point]
CC(C)CCNC(=O)c1csc2c1CCCCC2 | inconclusive [inhibitor, single point]
Cc1cc(CN(C)C(=O)CC2C(=O)NCCN2Cc2c(F)cccc2Cl)n[nH]1 (centres undefined) | inconclusive [inhibitor, single point]
Cc1nc2c(sc3nc(N4CCOCC4)c4c(c32)CC(C)(C)OC4)c(-c2ccc(Cl)cc2)c1C(=O)O | inactive
CC1CCC(C(C)C)C(OC(=O)Cn2c(-c3ccc(Cl)cc3)[n+](C)c3ccccc32)C1 (centres undefined) | inconclusive [inhibitor, partial curve]
O=C(CSc1ncnc2[nH]ncc12)Nc1cccc(Oc2ccccc2)c1 | inconclusive [inhibitor, single point]
CCSc1nnc(NC(=O)NC2CCCCC2)s1 | inconclusive [inhibitor, single point]
CC[n+]1c(/C=C/c2c[nH]c3ccccc23)ccc2cc(C)ccc21 | inconclusive [inhibitor, partial curve]
CCOC(=O)N=Nc1c2ccccc2c2nc3no[nH]c3nc12 | inconclusive [inhibitor, single point]
CC(C)C(=O)N1CCN(c2ccc(NC(=O)COc3ccccc3[N+](=O)[O-])cc2)CC1 | active: 31.6 µM
COc1ccc(C(=NNc2ccccc2C(=O)O)c2ccc(OC)cc2)cc1 | inconclusive [inhibitor, single point]
O=c1c(CCc2ccccc2)nc2cnc(N3CCOCC3)nc2n1Cc1ccc(F)cc1 | inconclusive [activator, partial curve, poor fit]
O=C(CCCSc1nc2ccccc2[nH]1)NCc1ccccc1F | inconclusive [inhibitor, single point]
O=C1CC[C@@]23/C=C/C(=O)NCCCCNCCCNC(=O)/C=C/c4ccc(c2c4)OC3C1 (some centres undefined) | inactive
CN1/C(=C/c2cc[n+](C)c3ccccc23)C=Cc2ccccc21 | active: 10 µM
COc1cc(S(=O)(=O)NCCN2CCOCC2)ccc1-n1cnnn1 | inconclusive [activator, partial curve, poor fit]
Cc1ccc(Cl)cc1NC(=S)N/N=C/c1cccc2ccccc12 | inactive
S=c1nc(-c2ccccc2Br)[nH][nH]1 | inconclusive [inhibitor, single point]
CC1Cc2ccccc2N1C(=O)CSc1ncc(-c2ccc(F)cc2)n1C (centres undefined) | inconclusive [inhibitor, partial curve]
COc1cc(Br)cc(CNc2ccc(F)c([N+](=O)[O-])c2)c1O | inconclusive [inhibitor, single point]
O=S(=O)(c1cccc(NC(=S)N2CCN(c3ccc(F)cc3)CC2)c1)C(F)F | inconclusive [inhibitor, single point]
CCC1=NN(C(=O)COc2ccccc2)C(O)(c2ccncc2)C1 (centres undefined) | inconclusive [activator, full curve, poor fit]

Structure (SMILES) | Potency
COC(=O)c1ccccc1NC(=O)N1CCN(c2ccc(OC)cc2)CC1 | inconclusive [inhibitor, single point]
Cc1ccc(/C=C2\SC(=S)N(CCCC(=O)NNC(=O)c3ccccc3O)C2=O)cc1 | inactive
CCn1c(O)c(C=Nc2ccccc2)sc1=S | inconclusive [inhibitor, single point]
COC(=O)N/N=C(\C)c1ccc2ccccc2c1OC(F)F | inactive
Cc1cccc2c1-c1sc(C(=O)N3CCc4ccccc4C3)cc1CO2 | inconclusive [inhibitor, single point]
Clc1ccc(-c2csc(N/N=C\c3cccnc3)n2)cc1 | inconclusive [inhibitor, single point]
S=c1[nH]nc(-c2cccs2)n1/N=C/c1c(Cl)cccc1Cl | inconclusive [inhibitor, single point]
Cc1ccc(Nc2c(-c3cccnc3)nc3ccc(Br)cn23)cc1 | inconclusive [inhibitor, partial curve]
Cc1c(C(=O)O)sc2nc(SCC(=O)Nc3ccc(S(=O)(=O)NC(C)(C)C)cc3)[nH]c(=O)c12 | inactive
COc1ccc(N2CCN(C(=O)/C(C#N)=C/c3ccccc3)CC2)cc1 | inactive
CCOC(=O)C1=C(C)Nc2sc(C(=O)c3ccc(OC)cc3)c(N)c2C1c1ccc(C(=O)OC)cc1 (centres undefined) | inconclusive [activator, partial curve]
COc1ccc(CN2C(=O)c3oc4ccccc4c(=O)c3C2c2ccc(O)c(OC)c2)cc1 (centres undefined) | inconclusive [inhibitor, single point]
Clc1ccc(COc2cccc(CNCc3ccncc3)c2)cc1 | inconclusive [inhibitor, full curve, poor fit]
O=[N+]([O-])c1ccc(NC(=S)NCCc2ccc(F)cc2)cc1 | inconclusive [inhibitor, partial curve]
O=C(CCn1c(=S)oc2ccccc21)Nc1cccc(O)c1 | inconclusive [inhibitor, single point]
CC(C)N(Cc1ccccc1)C(=O)Cn1c(=O)cnc2ccccc21 | inconclusive [inhibitor, full curve]
Cc1ccccc1NC(=S)NCCSc1ccc(Cl)cc1 | inconclusive [inhibitor, single point]
CSC1=NSC2=NC(=O)/C(=C/c3coc4ccccc4c3=O)C(=N)N12 | inconclusive [inhibitor, single point]
Nc1nc(CN2CCN(c3ccccc3F)CC2)nc(N2CCCc3ccccc32)n1 | inconclusive [inhibitor, single point]
O=C(CN1CCN(c2ncccn2)CC1)Nc1ccccc1C(F)(F)F | inconclusive [activator, partial curve, poor fit]
COc1ccc([C@H]2[C@H](C(=O)OC(C)(C)C)N3N=Cc4ccccc4C3C23C(=O)c2ccccc2C3=O)c(OC)c1 (some centres undefined) | inactive
O=C(COC(=O)/C=C/c1cccs1)Nc1cccc(S(=O)(=O)N2CCCC2)c1 | inconclusive [inhibitor, partial curve]

Structure (SMILES) | Potency
Nc1nc(SCC(=O)c2ccc([N+](=O)[O-])cc2)n[nH]1 | inconclusive [activator, full curve]
Cc1cc(C(C)(C)C)cc(C)c1S(=O)(=O)N1CC(=O)Nc2ccccc21 | inconclusive [inhibitor, single point]
Cc1cccc(NC(=S)NNC(=O)c2csc(C(C)C)c2)c1 | inconclusive [inhibitor, partial curve]
COc1cccc(C2CN(c3ccc(F)cc3F)N=C2c2cccs2)c1OC (centres undefined) | inconclusive [activator, partial curve]
COC(=O)C1=CN(C2CCCCC2)C=C(C(=O)OC)C1c1ccc2c(c1)OCO2 | inconclusive [activator, full curve, poor fit]
CCCCCCCCCC[n+]1cccc2c3ccccc3ccc21 | inconclusive [inhibitor, partial curve]
CC1=CC(=O)c2c(O)ccc(O)c2C1=O | inconclusive [inhibitor, single point]
Cc1ccc(NC(=O)/C=C/c2ccc3c(c2)OCO3)cc1S(=O)(=O)N1CCOCC1 | active: 28.2 µM
O=C(CNC(=O)c1ccccc1)OC(C(=O)c1ccccc1)c1ccccc1 (centres undefined) | inconclusive [inhibitor, single point]
CCN1CCCc2cc(CN(CCN3CCOCC3)C(=S)Nc3ccccc3C)ccc21 | inconclusive [inhibitor, partial curve]
Cc1ccc(S(=O)(=O)N2CCN(c3c([N+](=O)[O-])cc(C(F)(F)F)cc3[N+](=O)[O-])CC2)cc1 | inconclusive [inhibitor, partial curve]
CCOC(=O)C(NCc1ccc(F)cc1)(NC(=O)c1ccccc1)C(F)(F)F (centres undefined) | inconclusive [inhibitor, single point]
Cc1cccc(Oc2ccc(NC(=O)c3ccccc3C(=O)O)cc2)c1 | inconclusive [inhibitor, single point]
C=CC[C@H]1CC(Cc2ccccc2)=C[C@H](CC=C)N1 | inconclusive [inhibitor, single point]
CC1CCCC(C)N1CC(O)COc1c(F)cc(Br)cc1F (centres undefined) | inconclusive [activator, partial curve, poor fit]
COc1ccc(-c2cnnc(N/N=C/c3ccc(O)c(O)c3)n2)cc1 | inconclusive [inhibitor, single point]
CC(=O)NCCC(=O)Nc1ccc(C(N)=O)cc1 | inconclusive [inhibitor, single point]
CCC(OCC(O)CN1CCN(CCN2C(=O)c3cccc4cccc(c34)C2=O)CC1)c1ccccc1 (centres undefined) | inconclusive [inhibitor, single point]
C=CCOC(=O)C1=C(C)NC(C)=C(C(=O)OCC=C)C1/C=C/c1ccccc1 | active: 25.1 µM
CCOC(=O)C1=C(C)NC2=C(C(=O)c3ccccc32)C1c1ccc([N+](=O)[O-])o1 (centres undefined) | inconclusive [inhibitor, partial curve, poor fit]
